Experimental data reported in PMC9911399, “Two distinct binding modes provide the RNA-binding protein RbFox with extraordinary sequence specificity”.
Changes are numbered by the printed parent chain; changes in the protein carry UniProt numbers. The list shows a part of the results.

T1: RBFOX1 RRM (Homo sapiens, UniProt Q9NWB1 109-208)
T1 sequence: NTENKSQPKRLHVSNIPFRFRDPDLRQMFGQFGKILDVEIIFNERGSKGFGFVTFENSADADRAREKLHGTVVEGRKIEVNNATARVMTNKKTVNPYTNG

B1: ACAGUUA (DNA:RNA)
RNA: GGGAGACCGGAAUUCAGAUUGUCCACAGUUAUUAAAUCCCGUCGUAGCCACCA
DNA 1: CAATCTGAATTCCGGTCTCCC
DNA 2: TGGTGGCTACGACGGGATT
B2: AUAAGUG (DNA:RNA)
RNA: B1 RNA with C26U, G28A, U29G, A31G
DNA 1: CAATCTGAATTCCGGTCTCCC
DNA 2: TGGTGGCTACGACGGGATT
B3: ACAUAGG (DNA:RNA)
RNA: B1 RNA with G28U, U29A, U30G, A31G
DNA 1: CAATCTGAATTCCGGTCTCCC
DNA 2: TGGTGGCTACGACGGGATT
B4: UAUCCAA (DNA:RNA)
RNA: B1 RNA with A25U, C26A, A27U, G28C, U29C, U30A
DNA 1: CAATCTGAATTCCGGTCTCCC
DNA 2: TGGTGGCTACGACGGGATT
B5: GAGAACA (DNA:RNA)
RNA: B1 RNA with A25G, C26A, A27G, G28A, U29A, U30C
DNA 1: CAATCTGAATTCCGGTCTCCC
DNA 2: TGGTGGCTACGACGGGATT
B6: AGAGAUU (DNA:RNA)
RNA: B1 RNA with C26G, U29A, A31U
DNA 1: CAATCTGAATTCCGGTCTCCC
DNA 2: TGGTGGCTACGACGGGATT
B7: UGUUUUA (DNA:RNA)
RNA: B1 RNA with A25U, C26G, A27U, G28U
DNA 1: CAATCTGAATTCCGGTCTCCC
DNA 2: TGGTGGCTACGACGGGATT
B8: AACCUGU (DNA:RNA)
RNA: B1 RNA with C26A, A27C, G28C, U30G, A31U
DNA 1: CAATCTGAATTCCGGTCTCCC
DNA 2: TGGTGGCTACGACGGGATT
B9: GACUACA (DNA:RNA)
RNA: B1 RNA with A25G, C26A, A27C, G28U, U29A, U30C
DNA 1: CAATCTGAATTCCGGTCTCCC
DNA 2: TGGTGGCTACGACGGGATT
B10: UUUUAGG (DNA:RNA)
RNA: GGGAGACCGGAAUUCAGAUUGUCCUUUUAGGUUAAAUCCCGUCGUAGCCACCA
DNA 1: CAATCTGAATTCCGGTCTCCC
DNA 2: TGGTGGCTACGACGGGATT
B11: UUUCUUU (DNA:RNA)
RNA: B10 RNA with U28C, A29U, G30U, G31U
DNA 1: CAATCTGAATTCCGGTCTCCC
DNA 2: TGGTGGCTACGACGGGATT
B12: GUAAUGU (DNA:RNA)
RNA: B1 RNA with A25G, C26U, G28A, U30G, A31U
DNA 1: CAATCTGAATTCCGGTCTCCC
DNA 2: TGGTGGCTACGACGGGATT
B13: UCCCCAG (DNA:RNA)
RNA: B10 RNA with U26C, U27C, U28C, A29C, G30A
DNA 1: CAATCTGAATTCCGGTCTCCC
DNA 2: TGGTGGCTACGACGGGATT
B14: AACGCGA (DNA:RNA)
RNA: B1 RNA with C26A, A27C, U29C, U30G
DNA 1: CAATCTGAATTCCGGTCTCCC
DNA 2: TGGTGGCTACGACGGGATT
B15: ACUUUCU (DNA:RNA)
RNA: B1 RNA with A27U, G28U, U30C, A31U
DNA 1: CAATCTGAATTCCGGTCTCCC
DNA 2: TGGTGGCTACGACGGGATT
B16: ACACCCC (DNA:RNA)
RNA: B1 RNA with G28C, U29C, U30C, A31C
DNA 1: CAATCTGAATTCCGGTCTCCC
DNA 2: TGGTGGCTACGACGGGATT
B17: UUCAGUU (DNA:RNA)
RNA: B10 RNA with U27C, U28A, A29G, G30U, G31U
DNA 1: CAATCTGAATTCCGGTCTCCC
DNA 2: TGGTGGCTACGACGGGATT
B18: CCCUGCU (DNA:RNA)
RNA: B1 RNA with A25C, A27C, G28U, U29G, U30C, A31U
DNA 1: CAATCTGAATTCCGGTCTCCC
DNA 2: TGGTGGCTACGACGGGATT
B19: UGCCCUG (DNA:RNA)
RNA: B10 RNA with U26G, U27C, U28C, A29C, G30U
DNA 1: CAATCTGAATTCCGGTCTCCC
DNA 2: TGGTGGCTACGACGGGATT
B20: AGAAUGA (DNA:RNA)
RNA: B1 RNA with C26G, G28A, U30G
DNA 1: CAATCTGAATTCCGGTCTCCC
DNA 2: TGGTGGCTACGACGGGATT

target: T1, RBFOX1 RRM; assay: EMSA; HiTS-Eq, 1 nM pool, 10 min; buffer printed only for the single-RNA assays: 10 mM Tris pH 7.5, 150 mM NaCl, 3.4 mM EDTA, 0.001% NP-40, 30 C; conditions: tags: His6 N-terminal (pET28a); label: 5' 32P
How it was run: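 Purified wild-type or mutant RbFox RRM at increasing concentrations was equilibrated with 1 nM of 5′-radiolabelled RNA carrying 7 randomized nucleotides for 10 min in 50 µL. Unbound RNA was separated by 8% native PAGE and sequenced. Relative association constants came from read-count changes of each RNA species compared with the control reaction, normalised to the cognate motif.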

Row | Binder | binding signal
1 | B1 | 0.00411 KA relative to UGCAUGU
2 | B2 | 0.00877 KA relative to UGCAUGU
3 | B3 | 0.00417 KA relative to UGCAUGU
4 | B4 | 0.00131 KA relative to UGCAUGU
5 | B5 | 0.0109 KA relative to UGCAUGU
6 | B6 | 0.00776 KA relative to UGCAUGU
7 | B7 | 0.0129 KA relative to UGCAUGU
8 | B8 | 0.00476 KA relative to UGCAUGU
9 | B9 | 0.00254 KA relative to UGCAUGU
10 | B10 | 0.00544 KA relative to UGCAUGU
11 | B11 | 0.0113 KA relative to UGCAUGU
12 | B12 | 0.0122 KA relative to UGCAUGU
13 | B13 | 0.00017 KA relative to UGCAUGU
14 | B14 | 0.00453 KA relative to UGCAUGU
15 | B15 | 0.00754 KA relative to UGCAUGU
16 | B16 | 0.00028 KA relative to UGCAUGU
17 | B17 | 0.0101 KA relative to UGCAUGU
18 | B18 | 0.00518 KA relative to UGCAUGU
19 | B19 | 0.025 KA relative to UGCAUGU
20 | B20 | 0.0113 KA relative to UGCAUGU
